# From publication PMC4336329 (PLoS ONE, 2015)
# The campaign covered roughly 310,000 compounds. About 14,000 (4.5%) showed an effect of 50% or more. Effects have a minus sign here. The list shows a part of the results.
# Biological target: human ether-à-go-go-related gene (hERG) potassium channel (human, UniProt Q12809)
# Experiment: primary screen, population patch clamp on CHO cells stably expressing hERG
# 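Further: peak tail current of the secondary pulse compared with the same well before compound.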
# Chain of human ether-à-go-go-related gene (hERG) potassium channel (Q12809 whole entry, looked up): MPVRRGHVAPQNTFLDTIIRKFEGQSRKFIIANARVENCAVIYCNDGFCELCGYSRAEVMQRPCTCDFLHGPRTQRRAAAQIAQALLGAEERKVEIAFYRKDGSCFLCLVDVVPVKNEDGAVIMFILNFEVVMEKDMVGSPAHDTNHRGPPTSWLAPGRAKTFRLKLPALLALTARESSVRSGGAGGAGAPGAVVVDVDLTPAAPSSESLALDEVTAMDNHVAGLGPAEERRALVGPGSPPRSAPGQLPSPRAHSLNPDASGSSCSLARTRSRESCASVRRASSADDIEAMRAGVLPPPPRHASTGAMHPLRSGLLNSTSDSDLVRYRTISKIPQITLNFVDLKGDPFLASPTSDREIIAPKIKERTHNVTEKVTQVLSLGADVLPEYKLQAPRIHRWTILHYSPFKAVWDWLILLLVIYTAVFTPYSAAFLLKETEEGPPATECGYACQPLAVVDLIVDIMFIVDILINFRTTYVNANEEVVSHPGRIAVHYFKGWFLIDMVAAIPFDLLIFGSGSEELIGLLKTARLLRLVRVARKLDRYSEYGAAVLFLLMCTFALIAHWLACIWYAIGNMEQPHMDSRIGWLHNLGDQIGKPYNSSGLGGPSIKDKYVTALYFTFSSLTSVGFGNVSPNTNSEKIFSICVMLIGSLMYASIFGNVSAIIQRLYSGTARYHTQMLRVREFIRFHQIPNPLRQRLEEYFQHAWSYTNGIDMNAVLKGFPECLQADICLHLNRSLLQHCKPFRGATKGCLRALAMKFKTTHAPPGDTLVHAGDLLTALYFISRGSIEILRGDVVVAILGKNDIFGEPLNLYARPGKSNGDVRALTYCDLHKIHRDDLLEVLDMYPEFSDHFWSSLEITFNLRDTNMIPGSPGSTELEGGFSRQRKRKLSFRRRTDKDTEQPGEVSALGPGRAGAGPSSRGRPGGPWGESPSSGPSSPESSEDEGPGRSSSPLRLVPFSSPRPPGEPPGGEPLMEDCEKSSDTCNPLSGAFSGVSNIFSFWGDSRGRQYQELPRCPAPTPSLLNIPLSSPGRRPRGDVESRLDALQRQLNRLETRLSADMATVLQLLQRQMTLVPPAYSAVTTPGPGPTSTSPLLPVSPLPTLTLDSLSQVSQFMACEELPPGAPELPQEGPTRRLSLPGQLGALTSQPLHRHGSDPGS
row,SMILES,"hERG current change (%, negative = inhibition) at 10uM"
1,CC(=O)c1ccc(N2C(=O)[C@@H]3C(C(=O)CCN4C(=O)c5ccccc5C4=O)=NN[C@@H]3C2=O)cc1,-37.2%
2,Cc1ccccc1OCC(=O)Nc1ccccc1N1CCCCC1,19.9%
3,CCc1cc(C(=O)N2CCCC(C(=O)c3ccc(OC)c(F)c3)C2)n(C)n1 (stereo not shown),-34.6%
4,O=C(O)c1ccc2c(=O)n3c(nc2c1)/C(=C/c1ccccc1Br)CC3,4.66%
5,Cc1ccc(-c2c[n+](CC(=O)Nc3cc(=O)n(C)c(=O)n3C)c3n2CCC3)cc1.[Cl-],-0.179%
6,Cc1ccc(-n2c(C(C)C)nc3oc4ccccc4c(=O)c3c2=O)cc1,8.55%
7,C=C(C)CNC(=S)NNC(=O)c1cc(C)oc1C,2.46%
8,O=C(Nc1c2c(nc3ccccc13)CCCC2)c1ccccc1Cl,17.2%
9,CC(Sc1nnc(-c2cccs2)n1C1CC1)C(=O)NCC1CCCO1 (stereo not shown),-12.1%
10,O=C(CN(C(=O)CCC(=O)Nc1nccs1)c1ccc(F)cc1)NCc1ccccc1,29.1%
11,CCCS(=O)(=O)c1nc(S(=O)(=O)c2ccc(C)cc2)c(N2CC(C)OC(C)C2)s1 (stereo not shown),-3.25%
12,COC(=O)c1ccccc1S(=O)(=O)N1CCC(C(=O)N2CCC2)CC1,3.96%
13,COc1ccccc1NC(=O)NCCC1=CCCCC1,-10.8%
14,COc1nsnc1N1CCOCC1,9.24%
15,Cc1cc(C)c(O)c(NC(=S)NC(=O)Cc2ccccc2)c1,15.7%
16,C#CCOCCOCCOCCNc1nc(N2CCN(C(=O)[C@H](CCC(=O)O)n3cc(C(N)Cc4ccc(O)cc4)nn3)CC2)nc(N2CCN(C(=O)[C@H](CCC(=O)O)n3cc(C(N)[C@H](C)CC)nn3)CC2)n1.Cl (stereo partly shown),19.4%
17,Cc1nn(-c2nnc(NC3CCCCC3)nn2)c(C)c1Br,10.8%
18,O=C1C(=O)N(CCS(=O)(=O)c2ccccc2)c2ccc(Cl)cc21,-5.96%
19,C/C(CC(=O)Nc1ccccn1)=N\NC(=O)c1cnccn1,-4.11%
20,O=C(NCc1ccccc1CN1CCCC1)c1ccc(Cl)c(N2CCCC2=O)c1,-3.14%
21,O=C(O)CCn1cc(-c2ccc(Cl)cc2)nc1-c1ccc(Cl)nc1,12.5%
22,CN(C)S(=O)(=O)c1cccc(NC(=O)NCCCl)c1,0.815%

row,SMILES,"hERG current change (%, negative = inhibition) at 10uM"
1,O=C(CCC(=O)N1CCN(C(=O)c2ccco2)CC1)c1ccc(F)cc1,-66.7%
2,CC1=C(C(=O)N2CCOCC2)C(c2ccc(Br)cc2)NC(=S)N1c1ccccc1 (stereo not shown),1.32%
3,COCCn1c(SCC(=O)NC2CCCC2)nnc1-c1ccncc1,-3.49%
4,Cc1nn(-c2ccc(Cl)cc2)c2sc(C(=O)c3c(N)n(C)c(=O)n(C)c3=O)cc12,-1.02%
5,COCCCn1c(=S)[nH]c2sc3c(c2c1=O)CCCS3,24.3%
6,COc1ccc(NC(=O)CN(C)CC(=O)Nc2ccc(N3CCOCC3)cc2)c([N+](=O)[O-])c1,-26.2%
7,Cc1cnc(C)c(N2CCC(C(=O)NCc3ccco3)CC2)n1,-6.65%
8,Cc1cc(=O)oc2cc(OCc3nnc(-c4ccccc4Br)o3)ccc12,1.65%
9,CC1CN(C(=O)c2c([N+](=O)[O-])cnn2C)CC(C)O1 (stereo not shown),0.716%
10,O=C(NC(C(Cl)Cl)N1CCOCC1)c1ccccc1 (stereo not shown),13%
11,CN(Cc1ccccc1)C(=O)COC(=O)c1cc(NS(=O)(=O)c2cccs2)ccc1O,-0.596%
12,COc1cccc(N2CCN(S(=O)(=O)c3ccc4c(c3)oc(=O)n4C)CC2)c1,26%
13,CN(C)CCN(C(=O)c1ccc(S(=O)(=O)N2CCc3ccccc32)cc1)c1nc2ccc(F)cc2s1.Cl,-12.7%
14,O=C(CSc1nnnn1Cc1ccccc1)NC1CCCCC1,-2.23%
15,COc1cccc(NC(=O)C(C)OC(=O)c2n[nH]c3ccccc23)c1 (stereo not shown),-6.49%
16,Cc1nn(C)c(C)c1NC(=O)CSc1nnc(C)n1-c1ccccc1,-0.523%
17,COc1cc(/C=N/NC(=O)c2ccoc2C)cc(OC)c1OC,13.1%
18,Cc1ccc(-c2nc(-c3nccc4ccccc34)oc2-c2ccccc2)cc1,15.3%
19,O=C(c1ccccc1)N1CCN(c2ccc(NCc3ccc4c(c3)OCO4)cc2)CC1,-12.2%
20,Cc1oc(C)c(C(N)=O)c1C(N)=O,5.58%
21,CC(C)NC(=O)Cn1c(=O)c2c(ncn2Cc2ccccc2)n(Cc2ccccc2)c1=O,2.66%
22,O=C(c1cnn(-c2ccccc2)c1)c1cc(Br)ccc1O,11.6%

row,SMILES,"hERG current change (%, negative = inhibition) at 10uM"
1,O=C(CSc1nnc(COc2ccc(Cl)cc2)o1)NC1CC2CCC1C2 (stereo not shown),11.5%
2,CC(C)c1nc2sc3c(c2c(=O)[nH]1)CC(C)(C)OC3,17.7%
3,CC(C)CN(C(=O)c1ccc(-n2cncn2)c([N+](=O)[O-])c1)C1CCS(=O)(=O)C1 (stereo not shown),-12.9%
4,Cc1ccc(SCCC(=O)N/N=C/c2ccccc2O)cc1,13.2%
5,Br.CCCC1CC(=O)OC1(C)C(=O)CSc1n[nH]c(-c2ccccc2)n1 (stereo not shown),-3.65%
6,CCCC(=O)Nc1ccc(C(=O)NCc2ccccc2Cl)cc1,14.1%
7,Oc1ccccc1/C=N/Nc1cccc2cccnc12,-10.2%
8,CCN(c1ccccc1)S(=O)(=O)c1ccc(Cl)c(NC(=O)CSc2ncn[nH]2)c1,-1.32%
9,CC(=O)Oc1cc(C)cc2oc(=O)cc(-c3ccccc3)c12,-4.92%
10,CC(=O)NCCC(=O)Nc1ncc(S(=O)(=O)c2ccc([N+](=O)[O-])cc2)s1,2.71%
11,c1ccc(-c2nnc(CN3CCC4(CC3)OCCO4)o2)cc1,9.72%
12,Cc1nc2cc(N3CCCCC3)c(NC(=O)c3cccnc3)cc2c(=O)n1Cc1ccccc1,0.806%
13,Cl.Oc1ccc(C(c2nnnn2C2CCCCC2)N2CCOCC2)cc1 (stereo not shown),6.1%
14,Cc1ccc(C2C(C#N)=C(N)Oc3c2sc2ccccc32)o1 (stereo not shown),5.67%
15,Cc1ccc(N2CC(C(=O)Nc3ccc(S(=O)(=O)N4CCCC4)cc3)CC2=O)cc1C (stereo not shown),6.52%
16,COc1ccc(/C=C/C(=O)Nc2cccc(S(=O)(=O)N3CCCC3)c2)cc1OC,-0.417%
17,CCOc1cc(NC(=O)c2ccco2)c(OCC)cc1NC(=O)CCc1ccccc1OC,3.6%
18,CC(N=C1NS(=O)(=O)c2ccccc21)C(=O)OCC(=O)N(C)C1CCS(=O)(=O)C1 (stereo not shown),-8.64%
19,Cc1ccc2nc(C)c(C(=O)N/N=C/c3ccc(C(=O)O)cc3)cc2c1,15.5%
20,CCOC(=O)c1c(NC(=O)C(C)S(=O)(=O)c2cn(CC)c3ccccc23)sc2c1CCCC2 (stereo not shown),8.15%
21,O=C(NNC(=O)c1ccc2c(c1)OCO2)NC1CCCCC1,3.93%
22,CCN1C(=O)/C(=C2\SC(=S)N(CCCOC)C2=O)c2ccccc21,5.52%

row,SMILES,"hERG current change (%, negative = inhibition) at 10uM"
1,COC(=O)c1cn(CC(=O)Nc2ccc(F)cc2)c2ccccc12,17.2%
2,Cc1nc(SC2CC(=O)N(c3ccc([N+](=O)[O-])cc3)C2=O)nc2c1CCCC2 (stereo not shown),-20.4%
3,C#CCNC(=O)C1CCN(c2ccc(S(=O)(=O)N3CCOCC3)cc2Cl)CC1,-6.39%
4,C=CCn1c(SCC(=O)Nc2ncc(Cc3ccc(Br)cc3)s2)nnc1-c1ccncc1,11%
5,O=C(NC(=S)Nc1ccccc1C(=O)O)c1cncc(Br)c1,23%
6,Cc1cc(C)cc(N(CC(=O)NCCSc2ccccn2)S(=O)(=O)c2ccccc2)c1,-33.2%
7,COc1ccc(-c2oc3ncn(CCN4CCOCC4)c(=N)c3c2-c2ccc(OC)cc2)cc1,-70.3%
8,Cc1cc(C)c(NC(=O)CSc2nnc(-c3ccccn3)n2N)c(Cl)c1,-1.42%
9,Cc1ccc(NC(=O)CN(C)C(=O)c2cc3c(s2)CCCCC3)cc1,2.74%
10,CCOCCCNC(=O)c1cn(CC)c2ccc(S(=O)(=O)N3CCC(C)CC3)cc2c1=O,-22.6%
11,O=C(O)c1ccc(/C=N/N2CCN(Cc3cccc4ccccc34)CC2)cc1,14.6%
12,COc1ccc(C2=NOC3(CC(=O)N(c4ccc5ccccc5c4)C3=O)C2)c(OC)c1 (stereo not shown),10%
13,Cc1c(C(=O)N(C)CCCCN2CCOCC2)oc2c(F)cccc12,4.14%
14,CC(=O)Nc1cccc(NC(=O)Cc2ccc3ccccc3c2)c1,-2.03%
15,O=C(NCc1c(Cl)cccc1Cl)c1ccc2nnsc2c1,8.96%
16,O=C1CCCCC1C(Nc1ccc(Cl)cc1)c1ccccc1 (stereo not shown),5.67%
17,O=C(CSCc1ccc(Cl)cc1)Nc1ccc2c(c1)OCCO2,-20.3%
18,CCN1CCN(CCc2nc3cc(NC(=O)COc4ccccc4)ccc3n2C)CC1,-49.8%
19,O=C(O)CSCc1nc2ccccc2[nH]1,19.3%
